# Laboratory results from PubChem BioAssay AID651820 (National Center for Advancing Translational Sciences (NCATS), 2012).
# Out of some 340,000 compounds screened, about 12,000 (3.5%) were called active. This list was built around the results that the source calls inconclusive (neither active nor inactive); the mix of calls is not that of the screen. Calls follow the shape of the dose curve; as a rule, active = well fitted inhibition curve with a large enough effect; inconclusive = small, poorly fitted or top-dose-only effect, or another doubt; inactive = no such curve, though single readings can be large or run the other way. Potencies of inconclusive entries are left out as doubtful fits.
# Assay: qHTS Assay for Inhibitors of Hepatitis C Virus (HCV)
# Conditions: Huh7.5.1 HCVcc-Cre (HCVcc is cell-culture hepatitis C virus) infection, luciferase reporter, 44 h; series mostly up to 41.8 µM
# Procedure, shortened: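 After 44 h co-culture of compound, cells and HCVcc-Cre (~0.5 moi), substrate is added for 15 min at room temperature and luciferase measured over 15 sec. Cells were seeded at 1,000/well and pre-cultured 4 h.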
# Potency is read from the fitted curve at half-maximal effect; tags tell the direction and shape of the fitted curve.
row,Compound,Potency
1,CC(C)C1N(C(=O)N2CCOCC2)CCN1S(=O)(=O)c1ccccc1 (centres undefined),inactive
2,COc1ccc(C(=O)CSc2nc3cccnc3n2C)cc1,"inconclusive [inhibitor, partial curve]"
3,CC(C)N(C(=O)c1ccccc1-c1ccccc1)C(C)C,"inconclusive [inhibitor, single point]"
4,O=C(NCCSCc1ccco1)Nc1cccc(Cl)c1,"inconclusive [inhibitor, single point]"
5,C=CCNc1nc(N)c([N+](=O)[O-])c(Nc2cccc(Cl)c2)n1,active: 2.82 µM
6,CCN(CC(=O)Nc1ccc(OC)cc1)C(=O)c1cc(S(=O)(=O)N(C)C)ccc1N1CCCC1,active: 11.2 µM
7,CC1CCCN(S(=O)(=O)c2ccc(NC(=O)C3CCN(C(=O)C(C)(C)C)CC3)cc2)C1 (centres undefined),"inconclusive [inhibitor, single point]"
8,COc1ccccc1NS(=O)(=O)c1cc(N/C(=N\S(=O)(=O)c2ccccc2)c2ccc(F)cc2)ccc1Cl,active: 35.5 µM
9,CCN(CC(=O)Nc1cccc(OC)c1)c1ncnc2sc(C)c(C)c12,"inconclusive [inhibitor, full curve, poor fit]"
10,O=C(O)c1ccc(Cn2cnc3scc(-c4ccccc4)c3c2=O)cc1,inactive
11,COc1ccc(C(=O)Nc2cccc(C(=O)N/N=C/c3ccc(OC)cc3OC)c2)cc1,"inconclusive [inhibitor, partial curve]"
12,CCCCCN(C(=O)CCC(=O)OCC(=O)N(C)c1ccccc1)c1c(N)n(CCCC)c(=O)[nH]c1=O,inactive
13,CCOc1ccc(NC(=O)N2CCN(S(C)(=O)=O)CC2)cc1,"inconclusive [inhibitor, single point]"
14,C=CCn1ccc(=O)nc1SC,inactive
15,O=S(Cc1cc(Sc2ccccc2)nc(-c2ccccc2)n1)c1ccccc1 (centres undefined),inactive
16,COc1ccc2cc(/C=N/NC(=O)c3ccc(CN(c4ccc(C)c(C)c4)S(C)(=O)=O)cc3)c(Cl)nc2c1,"inconclusive [inhibitor, full curve, poor fit]"
17,O=C(Nc1cc(Cl)ccc1C(=O)O)c1ccc(CN2C(=O)c3ccccc3C2=O)cc1,"inconclusive [inhibitor, full curve, poor fit]"
18,COc1ccc(CCNC(=O)CCCOc2ccc(C)cc2)cc1OC,"inconclusive [inhibitor, partial curve]"
19,CCN(Cc1ccc2c(c1)OCO2)C(=O)CSc1ncnc2sccc12,"inconclusive [inhibitor, full curve, poor fit]"
20,NS(=O)(=O)c1ccc(Nc2nc3ccccc3nc2NS(=O)(=O)c2cccc([N+](=O)[O-])c2)cc1,inactive
21,CN(C)c1ccc(-c2nnn(CC(=O)N3c4ccccc4CCc4ccccc43)n2)cc1,inactive
22,COC(=O)c1c(NC(=S)Nc2ccc(CC(=O)O)cc2)sc(C)c1C,"inconclusive [inhibitor, single point]"
23,c1ccc(Cn2nnnc2C(c2cccs2)N2CCc3ccccc3C2)cc1 (centres undefined),"inconclusive [inhibitor, single point]"
24,CN(C)S(=O)(=O)c1ccc(-c2csc(N/N=C/c3ccc(O)cc3)n2)cc1,active: 10 µM
25,CCOc1cc(CNC(C)(C)CO)cc(Br)c1OCc1ccc(Cl)cc1Cl,active: 2.82 µM

row,Compound,Potency
1,Cc1ccccc1NC(=S)N1CCN(Cc2ccc3c(c2)OCO3)CC1,inactive
2,Cc1noc(C)c1CSc1nnc(-c2ccccc2F)n1CCc1ccccc1,"inconclusive [inhibitor, single point]"
3,COCCn1c(SCC(=O)Nc2cc(C(C)(C)C)nn2-c2ccccc2)nnc1-c1ccncc1,"inconclusive [inhibitor, single point]"
4,CCCCCCCCCCCCCC(=O)NO,"inconclusive [inhibitor, single point]"
5,COc1ccc(C(C(=O)NC2CCCCC2)N(C(=O)Cc2c[nH]c3ccccc23)c2ccccc2C)cc1OC (centres undefined),"inconclusive [inhibitor, single point]"
6,CCOC(=O)Cc1csc(N/N=C/c2ccc(Cl)cc2)n1,inactive
7,CCN(CC(=O)NCc1ccc(Cl)cc1)C(=O)CCOc1ccccc1C,"inconclusive [inhibitor, partial curve]"
8,CCCn1c(SCC(=O)Nc2ccccc2OC)nnc1-c1ccco1,"inconclusive [inhibitor, single point]"
9,N#C/C(=C\c1ccc(O)cc1)C(=O)N1CCCC1,inactive
10,CCOC(=O)C(CC)Sc1nnc(COc2ccc(C)cc2)n1-c1ccccc1 (centres undefined),"inconclusive [inhibitor, single point]"
11,COCCC(=O)N1CCC(Oc2ccc(C(=O)N3CCC[C@H]3CO)cc2)CC1,inactive
12,Cc1ccc(C(=O)Nc2cccc(C(F)(F)F)c2)cc1Nc1ccccn1,inactive
13,O=C(Nc1ccccc1)N1CCCN(Cc2ccccc2F)C1,"inconclusive [inhibitor, partial curve]"
14,CCOC(=O)CCC(NC(=O)CCC(=O)NC(CCC(=O)OCC)C(=O)OCC)C(=O)OCC (centres undefined),inactive
15,Cc1cc(NC(=S)NC(=O)CC(C)C)ccc1Br,"inconclusive [inhibitor, partial curve, poor fit]"
16,O=C(c1ccc(CN2CCc3ccccc3C2)cc1)N1CCN(c2ccc(F)cc2)CC1,"inconclusive [inhibitor, single point]"
17,CC(/C=N/NC(=O)c1nnn(-c2nonc2N)c1C(C)C)=C\c1ccccc1,active: 10 µM
18,O=C(CC1CCCC1)N1CCN(S(=O)(=O)c2ccc(F)cc2)CC1,"inconclusive [inhibitor, single point]"
19,COC(=O)c1ccc(Cn2nc(-c3cc(C)ccc3C)ccc2=O)cc1,"inconclusive [inhibitor, single point]"
20,O=C(COC(=O)c1ccccc1F)NCc1ccc2c(c1)OCO2,inactive
21,COC(=O)C1CN(Cc2ccccc2)C(=O)C1=O (centres undefined),inactive
22,COC(=O)c1ccc(C(=O)OC)c(NC(=O)CN2CCN(c3ccccc3)CC2)c1,inactive
23,CCN1CCN(Cc2ccc(NC(=O)c3ccc(C)c(NC(=O)c4nccn4C)c3)cc2C(F)(F)F)CC1,inactive
24,O=C(CSc1ccc(Cl)cc1)NC1=NN(c2ccccc2)C(=O)C1,inactive
25,COc1ccccc1NS(=O)(=O)c1ccc(N2CCOCC2)c(N)c1,"inconclusive [inhibitor, single point]"

row,Compound,Potency
1,CN1CCN(CCc2nc3cc(NC(=O)COc4ccc(Cl)cc4)ccc3n2C)CC1,"inconclusive [inhibitor, single point]"
2,COCCCNC(=S)Nc1cc2oc3ccccc3c2cc1OC,active: 8.91 µM
3,Cc1ccc(O)c(-c2cc(C(=O)Nc3ccc(S(=O)(=O)N4CC(C)OC(C)C4)cc3)[nH]n2)c1 (centres undefined),active: 11.2 µM
4,Cc1cccc(N2CCN(S(=O)(=O)c3c(C)nc4scc(C)n4c3=O)CC2C)c1 (centres undefined),"inconclusive [inhibitor, partial curve]"
5,Cc1ccc(-n2ncc3c2CCCC3NC(=O)c2ccoc2)cc1C (centres undefined),"inconclusive [inhibitor, single point]"
6,N#C/C(=C\c1ccc(O)c(O)c1)S(=O)(=O)c1ccccc1,inactive
7,N#CC12COC3(CCCCC3C1(C#N)C#N)OC2=N (centres undefined),inactive
8,CCN(CC)S(=O)(=O)c1ccc(N2CCOCC2)c(NC(=O)C2COc3ccccc3O2)c1 (centres undefined),"inconclusive [inhibitor, partial curve, poor fit]"
9,CC1(C)CC(=O)C(C=NCC(O)c2ccccc2)=C(O)C1 (centres undefined),inactive
10,COc1ccc(CN2CCN(C(=O)c3ccc(S(=O)(=O)N4CCCCCC4)cc3)CC2)cc1F,"inconclusive [inhibitor, partial curve]"
11,CCN(CC)c1ccc(NC(=O)c2ccc(=O)[nH]c2)cc1S(=O)(=O)Nc1ccc(OC)cc1,"inconclusive [inhibitor, full curve]"
12,CCc1ccc(N=c2c([N+](=O)[O-])nn(-c3ccccc3)n2O)cc1,"inconclusive [inhibitor, single point]"
13,Cc1cccc(NC(=O)CSc2nnc(Cc3ccccc3)o2)c1,inactive
14,COc1ccccc1-c1cc(C(F)(F)F)nc(S(=O)(=O)CCCC(=O)O)n1,inactive
15,CC1CCC(NC(=O)C2CCN(c3nc4ccccc4s3)CC2)CC1 (centres undefined),active: 10 µM
16,O=C1CC(N2CCN(c3nc4ccccc4s3)CC2)C(=O)N1Cc1cccs1 (centres undefined),active: 14.1 µM
17,CCCCn1nc(C(=O)O)ccc1=O,inactive
18,COc1cccc(NC(=O)COC(=O)c2ccccc2C(=O)N(C)c2ccccc2)c1,"inconclusive [inhibitor, single point]"
19,OCCCCNc1cccc2ccccc12,"inconclusive [inhibitor, single point]"
20,CCOc1cc2c(cc1OCC)C(c1ccc(F)cc1)NCC2 (centres undefined),inactive
21,O=C(NCCNCCO)c1c(O)c2cccc3c2n(c1=O)CCC3,"inconclusive [inhibitor, single point]"
22,COc1ccc(-c2nc(C)ncc2N=Nc2ccccc2)cc1,active: 31.6 µM
23,CC1CC(=Cc2ccc([N+](=O)[O-])cc2)C(=O)O1 (centres undefined),"inconclusive [inhibitor, full curve, poor fit]"
24,Cn1cnc(C(=O)NC2CCN(C(=O)OC(C)(C)C)CC2)c1C(=O)NC1CCN(C(=O)OC(C)(C)C)CC1,inactive
